91 compounds from paper PMC4336329 (PLoS ONE, 2015) can be followed below.

Structures are written as SMILES. Among all 310,000 compounds or so, about 14,000 (4.5%) showed an effect of 50% or more. Effects have a minus sign here. Some of the results follow.
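Also: peak tail current of the secondary pulse compared with the same well before compound.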

human ether-à-go-go-related gene (hERG) potassium channel, sequence (Q12809 whole entry, looked up): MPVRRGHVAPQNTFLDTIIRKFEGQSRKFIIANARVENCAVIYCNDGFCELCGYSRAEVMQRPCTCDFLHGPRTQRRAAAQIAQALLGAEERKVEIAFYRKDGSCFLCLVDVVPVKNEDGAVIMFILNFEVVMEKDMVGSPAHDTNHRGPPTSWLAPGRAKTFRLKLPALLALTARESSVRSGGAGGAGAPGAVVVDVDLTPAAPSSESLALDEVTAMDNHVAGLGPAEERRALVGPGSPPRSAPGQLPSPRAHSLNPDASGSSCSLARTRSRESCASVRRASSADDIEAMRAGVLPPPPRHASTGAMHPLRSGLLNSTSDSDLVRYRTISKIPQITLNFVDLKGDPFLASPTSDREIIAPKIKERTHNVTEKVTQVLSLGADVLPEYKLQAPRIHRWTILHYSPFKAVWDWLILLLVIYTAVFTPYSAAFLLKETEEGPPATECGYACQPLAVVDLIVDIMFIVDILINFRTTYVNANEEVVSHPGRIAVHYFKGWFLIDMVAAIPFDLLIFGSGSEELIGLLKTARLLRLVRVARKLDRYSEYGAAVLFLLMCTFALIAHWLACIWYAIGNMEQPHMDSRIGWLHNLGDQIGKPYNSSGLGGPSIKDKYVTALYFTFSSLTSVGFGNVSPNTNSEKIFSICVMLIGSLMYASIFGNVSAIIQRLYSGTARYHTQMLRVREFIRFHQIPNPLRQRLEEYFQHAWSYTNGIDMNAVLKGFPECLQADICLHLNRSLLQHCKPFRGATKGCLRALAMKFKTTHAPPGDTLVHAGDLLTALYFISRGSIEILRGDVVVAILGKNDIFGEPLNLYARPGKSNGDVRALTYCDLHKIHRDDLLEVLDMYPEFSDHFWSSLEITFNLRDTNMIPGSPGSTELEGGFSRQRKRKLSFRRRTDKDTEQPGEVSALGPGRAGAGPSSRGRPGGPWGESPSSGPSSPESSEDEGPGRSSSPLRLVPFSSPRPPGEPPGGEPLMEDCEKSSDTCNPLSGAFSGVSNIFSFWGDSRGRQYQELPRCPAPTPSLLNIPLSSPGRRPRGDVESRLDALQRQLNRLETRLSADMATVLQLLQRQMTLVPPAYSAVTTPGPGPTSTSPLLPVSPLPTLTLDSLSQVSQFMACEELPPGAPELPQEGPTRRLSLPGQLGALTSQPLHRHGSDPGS

The assay addresses human ether-à-go-go-related gene (hERG) potassium channel (human, UniProt Q12809). In words: primary screen, population patch clamp on CHO cells stably expressing hERG.
With `C=CCN(C(=O)c1ccccc1)C1CCS(=O)(=O)C1` (stereo not shown), the “hERG current change (%, negative = inhibition) at 10uM” value worked out at 11.5%.
In the case of `COCCC(=O)N1CCC(Oc2ccc(C(=O)NCCc3cnn(C)c3)cc2)CC1`, the “hERG current change (%, negative = inhibition) at 10uM” value is 8.9%.
In the case of `CCCOc1ccc(C(C)=O)cc1CN1CCOCC1.Cl` it was 2.99%; in that of `Cc1cc(SCC#N)nc2ccccc12`, 11.8%; in that of `Cc1cc2c(OCC(O)CNC3CCCCC3)cccc2[nH]1` (stereo not shown), 8.67%.
Turning to `COc1ccc(C(=O)NCCCNC(=O)c2cccnc2)cc1OC`, the “hERG current change (%, negative = inhibition) at 10uM” value worked out at 1.59%.
On to `CC(C)c1ccc(CC(C)C2C3=C(CCCC3=O)OC3=C2C(=O)CCC3)cc1` (stereo not shown), for which the “hERG current change (%, negative = inhibition) at 10uM” value is -7.75%.
In the case of `O=C1CC(c2cccc(Cl)c2)C(n2cncn2)C(=O)C1C1NCCc2ccccc21` (stereo not shown) it was -0.00052%; in that of `Cc1ccc(S(=O)(=O)NCCNS(=O)(=O)c2ccc(C)cc2)cc1`, 9.24%; in that of `CCC(C)(C)NC(=O)C(c1ccccc1)N(Cc1cccnc1)C(=O)c1csnn1` (stereo not shown), -12.1%.
For `CN(CCc1ccccn1)C(=O)Nc1ccc(F)cc1` the value was 12.7%; for `Cc1noc(C)c1C(=O)N(C)Cc1ccccc1`, 16.4%.
Consider `COc1ccc(N(CC(=O)NC(C)C)S(=O)(=O)c2ccc(NC(C)=O)cc2)cc1`, for which the “hERG current change (%, negative = inhibition) at 10uM” value is 2.29%.
For `CCOC(=O)C1=C(C)NC(=O)NC1c1cc(C)sc1C` (stereo not shown) the value was 11.7%.
With `COC(CN(C)S(=O)(=O)c1cc2c3c(c1)CCC(=O)N3CCC2)OC`, the “hERG current change (%, negative = inhibition) at 10uM” value came to 10.6%.
For `Cn1nc(C(=O)Oc2cc(=O)n(C)c3ccccc23)c2ccccc2c1=O` the value was 15.7%; for `CCn1c(SCC(=O)Nc2ccc3c(c2)n(C)c(=O)n3C)nnc1-c1ccncc1`, 7.64%.
For `O=C(CC1C(=O)NCCN1Cc1ccccc1C(F)(F)F)NCCN1CCCCC1=O` (stereo not shown), the “hERG current change (%, negative = inhibition) at 10uM” value is 16.9%.
For `CC(C)CNC(=O)[C@@H]1CSC2c3ccccc3C(=O)N21` (stereo partly shown) the value was 11.6%.
For `Cl.O=C1OC(CN2CCOCC2)CN1N=Cc1ccc([N+](=O)[O-])o1` (stereo not shown), the “hERG current change (%, negative = inhibition) at 10uM” value came out at 3.83%.
On to `O=C(O)c1ccc(Cl)c(S(=O)(=O)N(Cc2ccccc2)c2ccccc2)c1`, for which the “hERG current change (%, negative = inhibition) at 10uM” value turned out to be 7.76%.
Regarding `N#Cc1c(N)nc2c(c1-c1ccncc1)CCCCC2`, the “hERG current change (%, negative = inhibition) at 10uM” value is listed as -12.3%.
For `CCn1nnnc1SCC(=O)N1CCOCC1` the value was 8.39%.
In the case of `CC(C)COC(=O)NCCCOC(=O)Nc1ccccc1` it was 3.21%; in that of `c1ccc(-c2nc3ccccc3[nH]2)nc1`, 10.2%.
As for `CC1(C)Oc2ccc3ccc(=O)oc3c2/C(=C/NNC(N)=S)C1=O`, the “hERG current change (%, negative = inhibition) at 10uM” value stood at 10.3%.
For `Cc1cc(C)n2nc(-c3sccc3-n3cccc3)cc2n1` the value was 15.6%; for `COCCCNC(=O)CSc1nc2ccc(N3CCOCC3)cc2c(=O)n1CCc1ccccc1`, -59.8%.
In the case of `Cn1cc([N+](=O)[O-])c(C(=O)Nc2ccn(C34CC5CC(CC(C5)C3)C4)n2)n1` it was -20.9%; in that of `CCCc1cc(=O)[nH]c(SCc2nc3ccc([N+](=O)[O-])cc3[nH]2)n1`, 0.26%.
`O=c1ccc(N=Nc2ccccc2)ccc1O`: the “hERG current change (%, negative = inhibition) at 10uM” value was 12.7%.
In the case of `COc1ccccc1CNC(=O)C(NC(=O)c1ccc(C)cc1)C(C)C` (stereo not shown) it was -4.06%; in that of `CC1=C(C(N)=O)C(c2ccccc2F)n2nc(CCCO)nc2N1` (stereo not shown), 20.3%; in that of `CCOc1ccc(/C=C/C(=O)c2cc(Br)ccc(=O)c2O)cc1`, -6.36%.
For `CCOC(=O)C1(CCCc2ccccc2)CCN(C2CCC2)CC1`, the “hERG current change (%, negative = inhibition) at 10uM” value is recorded as -74.8%.
As to `Cc1cc(C)c2nc(N3CCOCC3)c(C#N)cc2c1`, the “hERG current change (%, negative = inhibition) at 10uM” value amounted to 24.5%.
In the case of `Cc1cc(Cl)ccc1NC(=O)CCN1C(=O)NC(C)(C)C1=O` it was 14.8%; in that of `COc1ccc(CC(=O)N(C)CC(=O)Nc2c(C)cccc2C)cc1S(=O)(=O)N1CCOCC1`, 3.28%.
For `CCOC(=O)N1CCN(CC(O)COc2ccccc2C(C)CC)CC1.Cl` (stereo not shown) the value was 0.934%.
For `Nc1c(C(=O)NCc2ccco2)sc2nc3c(cc12)C(=O)CCC3` the value was -16.9%; for `O=C(NC1CCCCC1)c1cc([N+](=O)[O-])ccc1N1CCCC1`, -0.526%; for `N#CCN1C(=O)NC2(CCCc3sccc32)C1=O` (stereo not shown), 11.1%.
As to `CC(C)(C)NC(=O)CSc1nc(N)c(-c2ccccc2)c(=O)[nH]1`, the “hERG current change (%, negative = inhibition) at 10uM” value turned out to be 15.7%.
Regarding `CCOC(CCn1c(SCC(=O)NC2CCCC2)nc2ccccc2c1=O)OCC`, the “hERG current change (%, negative = inhibition) at 10uM” value came out at 0.376%.
For the compound `COc1ccc(C)cc1-n1nnnc1SCC(=O)NNC(=O)c1ccc([N+](=O)[O-])cc1`, the “hERG current change (%, negative = inhibition) at 10uM” value is -30.6%.
In the case of `O=C(NCc1ccco1)c1cccc2ccccc12` it was 3.37%.
For `O=C(c1ccccc1)C(O)c1ccccc1` (stereo not shown), the “hERG current change (%, negative = inhibition) at 10uM” value was 17.4%.
Consider `COC(=O)c1ccc(C)c(NC(=O)c2c(-c3ccccc3)noc2C)c1`, for which the “hERG current change (%, negative = inhibition) at 10uM” value is listed as -11.9%.
`CC(Nc1nc(-c2ccc(F)cc2)cs1)c1nc2cc(Cl)c(Cl)cc2n1CCCO` (stereo not shown): the “hERG current change (%, negative = inhibition) at 10uM” value is on record as 3.69%.
For `CCC(C)NC(=O)c1cc2cc3ccc(OC)cc3nc2s1` (stereo not shown) the value was 4.84%; for `COC(=O)c1ccc(/C=C(\C#N)C(=O)NC(C)c2ccccc2)cc1` (stereo not shown), 10.6%.
For the compound `CCOC(=O)c1cc(-c2ccccc2C)nn1CC1CC(c2ccc(OC)cc2)=NO1` (stereo not shown), the “hERG current change (%, negative = inhibition) at 10uM” value is 3.54%.
As to `Cn1cc(CCNC(=O)c2ccc3nc(Cc4ccccc4F)oc3c2)cn1`, the “hERG current change (%, negative = inhibition) at 10uM” value was -12.1%.
Take `CCN1C(=O)C(O)(C2COC(C)(C)CC2=O)c2cc(Br)ccc21` (stereo not shown): the “hERG current change (%, negative = inhibition) at 10uM” value was -0.733%.
In the case of `COc1ccc(NC(=O)C2C3C=CC(C3)C2C(=O)NCc2ccco2)c(OC)c1` (stereo not shown) it was 12.3%.
Regarding `Cc1ccc(NS(=O)(=O)c2ccc(-n3cccn3)cc2)cc1C`, the “hERG current change (%, negative = inhibition) at 10uM” value is on record as 24.4%.
For `Nc1ccc(O)cc1`, the “hERG current change (%, negative = inhibition) at 10uM” value was found to be 10.9%.
On to `COc1ccc(/C(O)=C2/C(=O)C(=O)N(CC3CCCO3)C2c2cccc(O)c2)cc1` (stereo not shown), for which the “hERG current change (%, negative = inhibition) at 10uM” value worked out at 0.277%.
In the case of `O=c1oc2ccccc2n1Cc1cccc(C(F)(F)F)c1` it was -9.86%; in that of `CC(=O)c1ccc(OC(C)C)c(Cc2c(O)[nH]c(=S)[nH]c2=O)c1`, 21.8%.
For `CCn1c(CNC(=O)c2cc(OC)c(OC)c(OC)c2)cc2cc(C)ccc21` the value was 18.5%.
Consider `CN1CCN(S(=O)(=O)c2ccc(NC(=O)COc3ccccc3Cl)cc2)CC1`, for which the “hERG current change (%, negative = inhibition) at 10uM” value is reported as 20.1%.
For `COc1ccc(CCNC(=O)CCCn2nc(C)c([N+](=O)[O-])c2C)cc1OC` the value was 3.33%; for `COC(=O)Cn1c(=NC(=O)CN2C(=O)CCC2=O)sc2cc(S(N)(=O)=O)ccc21`, 14.5%.
For `CCOc1cnc(-c2ccccc2F)o1` the value was 14.3%; for `Cl.Fc1ccc(C(c2nnnn2Cc2cccs2)N2CCN(C3CCCC3)CC2)cc1` (stereo not shown), -67.4%; for `CC(C)C(=O)NNc1nc2ccccc2s1`, -27.4%.
For `CCOC(=O)CNC(=O)C(Cc1ccccc1)NS(=O)(=O)c1cccs1` (stereo not shown) the value was -2%; for `Nc1nc(N)nc(-c2cc(C(F)(F)F)ccc2Cl)n1`, 11.9%.
Take `O=S(=O)(NCCN1CCOCC1)c1cc(Cl)c(Cl)cc1Cl`: the “hERG current change (%, negative = inhibition) at 10uM” value came out at 6.12%.
For `CN(CC(=O)N1CCCC1)S(=O)(=O)c1ccc2ccccc2c1` the value was -8.93%.
For the compound `COc1ccccc1/C=C/C=N/N1CCN(Cc2ccc(Cl)cc2)CC1.Cl`, the “hERG current change (%, negative = inhibition) at 10uM” value was 7.74%.
With `COc1ccc(C(=O)N2CCN(c3nnnn3-c3ccccc3)CC2)cc1OC`, the “hERG current change (%, negative = inhibition) at 10uM” value was -30.5%.
Take `CC(=O)N1CCC(N(CCN2CCOCC2)C(=S)Nc2ccc(C)cc2C)CC1`: the “hERG current change (%, negative = inhibition) at 10uM” value stood at 1.48%.
For `COc1ccc(CCNc2ncccc2C#N)cc1OC` the value was 22.8%; for `Cc1cc(-c2nn(-c3ccccc3F)cc2CNCCc2cnccn2)c(C)s1`, -52.3%; for `O=S(=O)(c1cc(F)cc(F)c1)N1CCN(c2ncccn2)CC1`, 5.03%.
As to `CCC(=O)NC(=S)Nc1ccccc1OC`, the “hERG current change (%, negative = inhibition) at 10uM” value is reported as -13.9%.
In the case of `COc1ccc(CN2CCN(C(=O)CC(C)C)CC2)cc1OC` it was -0.529%; in that of `O=C(NCC1CCCO1)C1CC(c2ccccc2Cl)=NO1` (stereo not shown), -2.99%; in that of `CCCOC1CCCN(C(=O)c2cc(COc3c(F)cccc3F)on2)C1` (stereo not shown), -14.3%.
For `COC(=O)c1ccc(Cl)c(NC(=O)CN(c2ccc(OC)c(OC)c2)S(C)(=O)=O)c1`, the “hERG current change (%, negative = inhibition) at 10uM” value was determined as 0.0568%.
`O=C(CN(c1cccc(Br)c1)S(=O)(=O)c1ccccc1)N/N=C/c1cc([N+](=O)[O-])ccc1O`: the “hERG current change (%, negative = inhibition) at 10uM” value is given as -3.59%.
In the case of `COc1ccc(-c2cc(C(=O)Nc3ccc(Br)cc3)no2)cc1` it was 5.97%.
Regarding `CC(=O)N1N=C(c2ccccc2)CC1c1ccc2c(c1)OCO2` (stereo not shown), the “hERG current change (%, negative = inhibition) at 10uM” value is recorded as 1.98%.
For `Cc1cc(-c2n[nH]c(=S)n2Cc2ccco2)n(C)n1` the value was 14.6%; for `COC(=O)c1ccc(C(=O)OC)c(NC(=O)CN(C)Cc2cccc(Cl)c2Cl)c1`, 4.6%.
Consider `CCCS(=O)(=O)N1CCCC(C(=O)NCc2ccc3c(c2)OCO3)C1` (stereo not shown), for which the “hERG current change (%, negative = inhibition) at 10uM” value is given as -11%.
Turning to `CCOC(=O)N1CCC(n2c(SCC(=O)NCCC3=CCCCC3)nc3ccccc3c2=O)CC1`, the “hERG current change (%, negative = inhibition) at 10uM” value was -59.3%.
For `O=C(O)C1Oc2cc3ccccc3cc2O1` the value was 9.32%; for `COc1ccc(CNCCc2ccc(Cl)cc2)cc1OCc1ccccc1`, -75.6%.
